The record followed here is the supplement of paper PMC3334620.

The full ranking holds about 33,000 sequences; the median of “E-score (-0.5 to 0.5)” is about -0.017, and the highest 2% start at about 0.3. This is one part of the list.

The experiment concerns the target T1, Sut1 (UniProt P53032).
T1 sequence: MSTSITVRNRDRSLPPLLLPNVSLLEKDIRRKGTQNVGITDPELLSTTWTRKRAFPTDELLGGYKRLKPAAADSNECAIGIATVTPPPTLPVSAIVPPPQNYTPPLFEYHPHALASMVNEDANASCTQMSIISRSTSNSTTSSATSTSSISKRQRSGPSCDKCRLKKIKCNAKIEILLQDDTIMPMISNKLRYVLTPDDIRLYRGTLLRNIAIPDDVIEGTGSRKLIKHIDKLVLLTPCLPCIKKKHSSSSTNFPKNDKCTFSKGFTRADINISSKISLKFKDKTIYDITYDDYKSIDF
The experiment can be described thus: PBM E-score (8-mer binding enrichment) (E-score (-0.5 to 0.5)); higher = stronger / more preferred TF binding; most listed sequences are background and not binding sites. The conditions noted are these: protein concentration: 200 nM; construct: GST-full length. In outline: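 Yeast transcription factors, full-length or as DNA-binding domains, were expressed with a GST tag using PURExpress in vitro transcription/translation. At about 100-200 nM they were applied to universal all-10-mer Agilent arrays, double-stranded by primer extension on fresh or once-stripped slides. Fluorescent anti-GST detected bound protein, and masliner normalised the scans. E-scores for ungapped eight-base words, pooled with reverse complements, came from the Universal PBM Analysis Suite.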
CTTGCAAC: the “PBM E-score” value turned out to be 0.00418.
Consider GCCGCAAC, for which the “PBM E-score” value is -0.0355.
For the sequence ATACAGAG, the “PBM E-score” value is -0.117.
Turning to ATCAACGC, the “PBM E-score” value was found to be 0.0493.
With GGTGCCCA, the “PBM E-score” value was -0.252.
On to AGTACGTG, for which the “PBM E-score” value was -0.0556.
Turning to CTCAGGCA, the “PBM E-score” value is -0.0425.
Then AGAAGAAG, with 0.109.
Turning to CCAGCTAG, the “PBM E-score” value is -0.27.
As for GATAGCGA, the “PBM E-score” value worked out at 0.0801.
For CCTGTGCC, the “PBM E-score” value is -0.229.
With CTGGTCCA, the “PBM E-score” value is -0.198.
As to ATACCGCA, the “PBM E-score” value was -0.229.
The same measure for CCGATGCA: 0.0988; for AATACGAT: 0.163; for GTTGGCGA: 0.123.
CCGGATCA: the “PBM E-score” value came out at 0.212.
With ATACAGGG, the “PBM E-score” value came out at 0.0749.
The same measure for CTCTACTA: -0.141; for CAGTCTCG: -0.0856; for ATACGCGA: -0.183.
In the case of ACCGTTGA, the “PBM E-score” value is -0.167.
In the case of CTGACCCC, the “PBM E-score” value was -0.212.
As for ACACTTAT, the “PBM E-score” value is 0.0454.
On to CACTTCAG, for which the “PBM E-score” value is 0.171.
As to AATCCTCT, the “PBM E-score” value was -0.185.
ACCGTACT: the “PBM E-score” value is 0.108.
Take GGTTGGGA: the “PBM E-score” value is -0.273.
Regarding CATATCGA, the “PBM E-score” value was -0.081.
Take CAGGCGGC: the “PBM E-score” value is -0.29.
As for CTCAACAC, the “PBM E-score” value was 0.147.
As to CCACTCCC, the “PBM E-score” value was -0.254.
In the case of ATCTATAC, the “PBM E-score” value stood at 0.17.
Regarding AACACAGC, the “PBM E-score” value is 0.159.
Turning to CGGCTTGC, the “PBM E-score” value amounted to 0.105.
On to ACCCACCC, for which the “PBM E-score” value is -0.125.
Then CTCCCGCA, with 0.0651.
The same measure for GACATCAA: 0.0833; for GGTAGTAC: -0.154; for AACACAAG: 0.0493.
Turning to TGAAAACA, the “PBM E-score” value was found to be 0.0895.
For AGAAAGCA, the “PBM E-score” value amounted to 0.194.
The same measure for AAGGTATG: 0.105; for ATTCGAGA: -0.0266; for ACTTGTGA: 0.022.
With GGAAGGAA, the “PBM E-score” value is 0.0279.
As to AGTCCCTC, the “PBM E-score” value was -0.194.
With GCCCGAAC, the “PBM E-score” value is -0.00475.
As for ACTCCGTC, the “PBM E-score” value stood at 0.48.
As to AAGTGGGA, the “PBM E-score” value was 0.126.
Take CTCTCGGC: the “PBM E-score” value is -0.0324.
In the case of CCTCAACC, the “PBM E-score” value is -0.19.
The same measure for AGCTAGCC: -0.173.
Regarding GAGAAAGA, the “PBM E-score” value came to 0.22.
Consider TCTAGGAA, for which the “PBM E-score” value is -0.0256.
The same measure for CGAAAACC: 0.0693; for CGTTAACC: 0.00056; for AATATTAT: 0.319.
Turning to GACTGAAA, the “PBM E-score” value came out at 0.145.
Turning to AGCCATCA, the “PBM E-score” value was 0.0518.
As for AGGCCCTA, the “PBM E-score” value was -0.0648.
For the sequence AGATACTA, the “PBM E-score” value was -0.0165.
As for ACATTCGG, the “PBM E-score” value was 0.164.
Then GAACAGCC, with -0.171; and CAGGTAGG, with -0.0364.
The same measure for AGAGTCAC: -0.177; for ACTAGTAA: 0.186.
The same measure for CACTTGGA: 0.0147; for CTCCCTCC: -0.2; for CAACTGCG: -0.0654.
Consider AACCATAC, for which the “PBM E-score” value came out at 0.0437.
In the case of TGACTACA, the “PBM E-score” value is 0.1.
As for ATCCAGGA, the “PBM E-score” value was -0.128.
Regarding CACTACGC, the “PBM E-score” value was -0.248.
The same measure for GAGCAAAA: 0.0808; for TGGATCCA: 0.0616; for GGCGAAAC: -0.115.
As for GTAGATGA, the “PBM E-score” value is 0.0905.
Take AGTGTTAT: the “PBM E-score” value was 0.181.
In the case of AATCTTAG, the “PBM E-score” value is 0.00355.
For GATCCCAC, the “PBM E-score” value is -0.0249.
As for ATTTGCGC, the “PBM E-score” value was 0.0688.
Regarding CTGCCATA, the “PBM E-score” value was -0.129.
As to AGCGCTAC, the “PBM E-score” value was -0.0877.
The same measure for AAAGAGGG: -0.146; for GCGTTTGA: 0.0588.
For the sequence AATATTGT, the “PBM E-score” value is 0.292.
Consider AGCATATC, for which the “PBM E-score” value is -0.0952.
With TAACCATA, the “PBM E-score” value is -0.00377.
In the case of AATCTAAC, the “PBM E-score” value is 0.0735.
In the case of ATGATCCA, the “PBM E-score” value stood at 0.0289.
For the sequence ACTACGTA, the “PBM E-score” value is 0.0693.
In the case of ACACCATA, the “PBM E-score” value worked out at 0.00796.
The same measure for CCCATCTA: -0.0336.
Then CCCGAGAG, with -0.0293.
For the sequence CCCAACTA, the “PBM E-score” value turned out to be 0.0875.
In the case of CTACGTGA, the “PBM E-score” value is -0.152.
On to AATTCGCC, for which the “PBM E-score” value amounted to 0.15.
Take GCGGGCAA: the “PBM E-score” value worked out at 0.0142.
Turning to ATAGCTGC, the “PBM E-score” value worked out at 0.0779.
Take CATTCGTC: the “PBM E-score” value is -0.0416.
Then CTAAGTCA, with 0.0811; and GGTTGGCA, with -0.186.
On to CGGGAACA, for which the “PBM E-score” value turned out to be 0.0292.
As for CCAAGCTA, the “PBM E-score” value was -0.221.
As for AAATAGAG, the “PBM E-score” value is 0.128.
As for GACGCCAA, the “PBM E-score” value is -0.101.
In the case of AACGACAG, the “PBM E-score” value was -0.0692.
On to GAAGAGTA, for which the “PBM E-score” value worked out at 0.105.
